According to PubChem BioAssay (NCATS):
The shares of active, inactive and inconclusive entries below differ from those in the screen. For part of these data: Potencies of inconclusive entries are doubtful fits and often do not repeat. Active and inactive are the calls of the source. Unless noted, calls follow the shape of the dose curve; as a rule, active = well fitted activation curve with a large enough effect in the main read-out, with a control signal flat (not every such curve was filed as active); inconclusive = small, poorly fitted or top-dose-only effect, or effect the other way, or a change in a side signal; inactive = flat fitted curve, though single readings scatter.

How the values were obtained:
[1] = molecular target: Vitamin D3 receptor (Homo sapiens) (UniProt P11473); experiment: qHTS for Inhibitors of the vitamin D receptor (VDR): Hit Validation using a Beta-Lactamase Assay (AID 602202; active = well fitted curve in the direction sought with a large enough effect; inconclusive = small, poorly fitted or top-dose-only effect, or another doubt; inactive = no such curve, though single readings can be large; an effect the other way counts as inactive or inconclusive; as to activity change, negative = inhibition: % is scaled to controls: 0 for no effect and ±100 for the full control effect)
UniProt P11473, sequence (P11473 whole entry, looked up, the tested form may be a part): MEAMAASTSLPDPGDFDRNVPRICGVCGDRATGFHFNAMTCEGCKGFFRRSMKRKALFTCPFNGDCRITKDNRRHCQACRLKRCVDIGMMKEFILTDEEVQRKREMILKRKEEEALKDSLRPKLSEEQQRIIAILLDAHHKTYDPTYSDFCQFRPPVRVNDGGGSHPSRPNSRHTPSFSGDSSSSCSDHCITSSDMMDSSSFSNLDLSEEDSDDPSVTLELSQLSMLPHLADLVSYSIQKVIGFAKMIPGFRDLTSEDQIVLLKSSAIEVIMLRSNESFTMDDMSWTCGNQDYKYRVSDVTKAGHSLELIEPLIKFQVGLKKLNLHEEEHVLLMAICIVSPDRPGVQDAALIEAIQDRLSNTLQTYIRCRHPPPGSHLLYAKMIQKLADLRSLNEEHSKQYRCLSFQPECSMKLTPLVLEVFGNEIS
Outline: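 Stably transfected HEK293 cells expressing VDR-GAL4 DNA-binding domain fusion with UAS-driven beta-lactamase reporter, activated by agonist LG190178; compounds incubated 18 h, then FRET beta-lactam substrate 2 h; cleaved substrate read at 447 nm emission.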

[2] = qHTS for Inhibitors of the vitamin D receptor (VDR): Hit Validation using a Cytotoxicity Assay (AID 602204; active = well fitted curve in the direction sought with a large enough effect; inconclusive = small, poorly fitted or top-dose-only effect, or another doubt; inactive = no such curve, though single readings can be large; an effect the other way counts as inactive or inconclusive; also: nearly all actives have a fitted effect of over 75% in size;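 as to Potency: cells co-treated with VDR agonist LG190178 at 300 nM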)
Outline: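 Cytotoxicity is flagged by loss of ATP-dependent luminescence in cells treated 18 h with compound. Seeding density was 20,000 cells per well with 4 h pre-incubation; detection took 30 min.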

[3] = molecular target: Bifunctional 3'-5' exonuclease/ATP-dependent helicase WRN (Homo sapiens) (UniProt Q14191); experiment: qHTS for Inhibitors of WRN Helicase: Confirmatory Assay for Cherry-picked Compounds. (AID 720497; active = well fitted curve in the direction sought with a large enough effect; inconclusive = small, poorly fitted or top-dose-only effect, or another doubt; inactive = no such curve, though single readings can be large; an effect the other way counts as inactive or inconclusive; also: nearly all actives have a fitted effect of over 65% in size)
UniProt Q14191, sequence (Q14191 whole entry, looked up): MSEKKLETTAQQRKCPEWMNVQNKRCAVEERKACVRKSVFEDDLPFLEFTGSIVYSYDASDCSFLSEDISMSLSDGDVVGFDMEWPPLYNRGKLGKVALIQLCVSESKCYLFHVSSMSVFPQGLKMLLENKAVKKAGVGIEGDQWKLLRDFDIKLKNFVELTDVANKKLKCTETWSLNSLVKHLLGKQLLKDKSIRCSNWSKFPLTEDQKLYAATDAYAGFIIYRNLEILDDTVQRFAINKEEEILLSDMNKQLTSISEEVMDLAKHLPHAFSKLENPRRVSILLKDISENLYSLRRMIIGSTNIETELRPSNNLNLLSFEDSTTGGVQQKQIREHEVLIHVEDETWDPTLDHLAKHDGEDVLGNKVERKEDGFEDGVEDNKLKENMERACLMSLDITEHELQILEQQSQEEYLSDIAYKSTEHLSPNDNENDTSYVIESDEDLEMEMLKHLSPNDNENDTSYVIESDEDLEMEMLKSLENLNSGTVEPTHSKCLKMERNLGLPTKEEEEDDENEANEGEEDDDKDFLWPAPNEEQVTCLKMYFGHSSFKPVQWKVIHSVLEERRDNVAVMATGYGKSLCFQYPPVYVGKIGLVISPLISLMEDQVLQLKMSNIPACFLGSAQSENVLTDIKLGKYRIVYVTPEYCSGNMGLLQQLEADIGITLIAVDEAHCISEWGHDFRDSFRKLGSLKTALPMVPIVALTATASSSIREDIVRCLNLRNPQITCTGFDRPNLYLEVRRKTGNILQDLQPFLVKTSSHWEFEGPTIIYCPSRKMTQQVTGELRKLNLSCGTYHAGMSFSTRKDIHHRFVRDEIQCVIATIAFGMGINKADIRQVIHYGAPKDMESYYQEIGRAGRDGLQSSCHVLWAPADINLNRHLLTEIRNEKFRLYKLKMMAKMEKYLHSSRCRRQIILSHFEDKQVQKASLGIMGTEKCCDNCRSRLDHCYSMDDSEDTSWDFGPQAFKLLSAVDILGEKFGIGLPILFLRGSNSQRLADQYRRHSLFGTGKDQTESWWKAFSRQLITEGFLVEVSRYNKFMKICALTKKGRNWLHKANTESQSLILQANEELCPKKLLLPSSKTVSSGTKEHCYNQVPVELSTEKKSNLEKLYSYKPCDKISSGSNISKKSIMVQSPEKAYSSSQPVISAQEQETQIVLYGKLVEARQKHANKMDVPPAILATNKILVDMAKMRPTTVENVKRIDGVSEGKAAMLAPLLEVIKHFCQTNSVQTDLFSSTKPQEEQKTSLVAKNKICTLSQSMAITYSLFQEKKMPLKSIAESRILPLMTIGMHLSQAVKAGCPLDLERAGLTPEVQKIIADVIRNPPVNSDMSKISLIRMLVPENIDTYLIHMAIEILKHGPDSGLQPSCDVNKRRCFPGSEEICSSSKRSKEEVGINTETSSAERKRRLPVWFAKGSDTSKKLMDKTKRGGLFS
Outline: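 WRN at 20 nM final was preincubated with compound for 15 min at room temperature; the reaction was started with 100 nM forked duplex oligonucleotide and 2 mM ATP (final). Red fluorescence (ex 525/em 598 nm) was read kinetically, with inhibition normalized to enzyme-only and buffer-only wells.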

[4] = qHTS for Inhibitors of the vitamin D receptor (VDR): Hit Validation using a Texas Red Assay (AID 602201; active = well fitted curve in the direction sought with a large enough effect; inconclusive = small, poorly fitted or top-dose-only effect, or another doubt; inactive = no such curve, though single readings can be large; an effect the other way counts as inactive or inconclusive)
Outline: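 Fluorescence polarization with 1.5 uM VDR-LBD, LG19078 and 7 nM Texas Red (final). After 2 hours at ambient temperature, read at Ex 595 nm/Em 615 nm.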

[5] = molecular target: Phosphoglycerate kinase, glycosomal (Trypanosoma brucei brucei) (UniProt P07378); experiment: qHTS for inhibitors of Phosphogylcerate Kinase: Hit Validation Screen (AID 686980; active = well fitted curve in the direction sought with a large enough effect; inconclusive = small, poorly fitted or top-dose-only effect, or another doubt; inactive = no such curve, though single readings can be large; an effect the other way counts as inactive or inconclusive; also: nearly all actives have a fitted effect of over 65% in size)
Outline: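 Recombinant glycosomal PGK reaction used 1,3-bisphosphoglycerate generated in-well by GAPDH (100nM final) in 100mM TEA pH 7.6, 5mM MgCl2, 0.01% Tween-20. After 60 minutes at room temperature, ATP was read by Kinase-Glo Plus luminescence end-point.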

[6] = molecular target: DNA polymerase iota (Homo sapiens) (UniProt Q9UNA4); experiment: qHTS for Inhibitors of Polymerase Iota: Confirmatory Assay for Cherry-picked Compounds (AID 720496; active = well fitted curve in the direction sought with a large enough effect; inconclusive = small, poorly fitted or top-dose-only effect, or another doubt; inactive = no such curve, though single readings can be large; an effect the other way counts as inactive or inconclusive); conditions: Pol iota primer extension, TAMRA/BHQ fluorescence
UniProt Q9UNA4, sequence (Q9UNA4 whole entry, looked up): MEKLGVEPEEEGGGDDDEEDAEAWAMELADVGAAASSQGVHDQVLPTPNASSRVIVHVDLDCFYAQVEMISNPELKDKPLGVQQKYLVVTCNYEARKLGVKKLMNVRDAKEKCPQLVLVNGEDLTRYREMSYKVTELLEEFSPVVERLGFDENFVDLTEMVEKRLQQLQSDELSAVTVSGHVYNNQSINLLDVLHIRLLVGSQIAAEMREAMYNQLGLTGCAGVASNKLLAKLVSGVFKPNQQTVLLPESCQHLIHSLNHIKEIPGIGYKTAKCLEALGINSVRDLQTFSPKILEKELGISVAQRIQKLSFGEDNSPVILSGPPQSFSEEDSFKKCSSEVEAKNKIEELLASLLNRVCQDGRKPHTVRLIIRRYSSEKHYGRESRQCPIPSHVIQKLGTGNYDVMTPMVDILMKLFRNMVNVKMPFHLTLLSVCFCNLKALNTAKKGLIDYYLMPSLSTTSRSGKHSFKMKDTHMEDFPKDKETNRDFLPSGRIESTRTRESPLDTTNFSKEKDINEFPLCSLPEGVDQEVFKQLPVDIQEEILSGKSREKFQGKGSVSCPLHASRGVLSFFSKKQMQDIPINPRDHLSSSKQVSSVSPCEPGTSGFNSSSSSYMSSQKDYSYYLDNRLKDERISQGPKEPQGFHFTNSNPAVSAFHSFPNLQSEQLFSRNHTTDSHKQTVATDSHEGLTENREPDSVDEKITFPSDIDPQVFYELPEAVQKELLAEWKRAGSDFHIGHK
Outline: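 Kinetic fluorescence, 0 → 10 min, ex 525/em 598 nm. Pol iota 10 nM, 15 min RT preincubation with compound, then 50 nM (final) TAMRA/BHQ-2 primer-template substrate.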

[7] = qHTS for Inhibitors of WRN Helicase: Thiazole Orange DNA Binding Counterscreen (AID 720499; active = well fitted curve in the direction sought with a large enough effect; inconclusive = small, poorly fitted or top-dose-only effect, or another doubt; inactive = no such curve, though single readings can be large; an effect the other way counts as inactive or inconclusive;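 also: drop in dye fluorescence marks compound binding to DNA; nearly all actives have a fitted effect of over 60% in size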; as to activity change, negative = inhibition: % is scaled to controls: 0 for no effect and ±100 for the full control effect)
Outline: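 Here, compounds that displace thiazole orange (100 nM) from unlabeled DNA (50 nM) lower fluorescence, read at excitation 480 nm and emission 530 nm after a 15 min room-temperature incubation.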

[8] = molecular target: RecQ-like DNA helicase BLM (Homo sapiens) (UniProt P54132); experiment: qHTS for Inhibitors of WRN Helicase: BLM Helicase Counterscreen for WRN Inhibitors (AID 720503; active = well fitted curve in the direction sought with a large enough effect; inconclusive = small, poorly fitted or top-dose-only effect, or another doubt; inactive = no such curve, though single readings can be large; an effect the other way counts as inactive or inconclusive; also: nearly all actives have a fitted effect of over 60% in size); conditions: Recombinant BLM helicase DNA unwinding, red fluorescence; activity change, negative = inhibition: at 57.1 µM (top of the series)
UniProt P54132, sequence (P54132 whole entry, looked up): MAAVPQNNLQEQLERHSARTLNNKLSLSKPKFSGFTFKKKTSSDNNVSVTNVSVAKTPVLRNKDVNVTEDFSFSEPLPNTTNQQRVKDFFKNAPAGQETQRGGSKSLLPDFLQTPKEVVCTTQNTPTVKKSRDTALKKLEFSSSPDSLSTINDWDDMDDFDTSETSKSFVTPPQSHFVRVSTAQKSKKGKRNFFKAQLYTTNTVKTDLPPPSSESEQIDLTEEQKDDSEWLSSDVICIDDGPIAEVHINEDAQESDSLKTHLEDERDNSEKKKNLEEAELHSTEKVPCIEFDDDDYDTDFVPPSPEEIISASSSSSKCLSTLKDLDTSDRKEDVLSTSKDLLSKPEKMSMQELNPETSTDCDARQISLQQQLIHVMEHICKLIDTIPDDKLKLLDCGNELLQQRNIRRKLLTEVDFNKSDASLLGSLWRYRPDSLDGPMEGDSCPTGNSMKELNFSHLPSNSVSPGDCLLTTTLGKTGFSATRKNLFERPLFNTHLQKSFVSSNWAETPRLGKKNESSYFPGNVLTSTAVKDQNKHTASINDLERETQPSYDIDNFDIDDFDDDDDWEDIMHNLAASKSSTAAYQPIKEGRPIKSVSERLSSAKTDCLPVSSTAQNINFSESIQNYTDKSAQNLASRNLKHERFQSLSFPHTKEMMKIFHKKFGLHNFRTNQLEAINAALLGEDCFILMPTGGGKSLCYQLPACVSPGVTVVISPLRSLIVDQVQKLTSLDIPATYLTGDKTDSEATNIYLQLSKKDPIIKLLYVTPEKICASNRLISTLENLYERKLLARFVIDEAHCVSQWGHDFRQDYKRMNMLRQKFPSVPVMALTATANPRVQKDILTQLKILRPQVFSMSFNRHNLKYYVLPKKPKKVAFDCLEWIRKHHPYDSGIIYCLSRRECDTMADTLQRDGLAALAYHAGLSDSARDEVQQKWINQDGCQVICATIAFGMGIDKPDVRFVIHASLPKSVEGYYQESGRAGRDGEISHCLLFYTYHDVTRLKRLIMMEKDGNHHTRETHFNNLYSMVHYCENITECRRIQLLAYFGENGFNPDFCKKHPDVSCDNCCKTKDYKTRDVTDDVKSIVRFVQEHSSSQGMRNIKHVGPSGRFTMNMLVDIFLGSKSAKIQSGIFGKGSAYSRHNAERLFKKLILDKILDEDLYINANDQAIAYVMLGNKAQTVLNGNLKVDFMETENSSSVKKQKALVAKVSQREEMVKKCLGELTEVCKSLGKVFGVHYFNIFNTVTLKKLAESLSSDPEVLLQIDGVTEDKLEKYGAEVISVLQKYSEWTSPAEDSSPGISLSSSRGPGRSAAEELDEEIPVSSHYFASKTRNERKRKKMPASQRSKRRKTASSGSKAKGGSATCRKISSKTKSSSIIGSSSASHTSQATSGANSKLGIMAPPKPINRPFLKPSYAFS
Outline: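 BLM (1 nM) was preincubated with compounds for 15 min at room temperature in Tris-HCl pH 8.0, 50 mM NaCl, 2 mM MgCl2 buffer. Unwinding started with 100 nM DNA and 2 mM ATP (final); red fluorescence was read twice, 15 min apart.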

[9] = molecular target: 3',5'-cyclic-AMP phosphodiesterase 4B (Homo sapiens) (UniProt Q07343); experiment: qHTS Assay for Inhibitors of PDE-IV (AID 607); conditions: HEK293 ACTOne CNG channel cells, membrane potential fluorescence; activation (PDE inhibition): at 22.9 µM (top of the series); as to activation (PDE inhibition): % of control where 0% means no effect
UniProt Q07343, sequence (Q07343 whole entry, looked up): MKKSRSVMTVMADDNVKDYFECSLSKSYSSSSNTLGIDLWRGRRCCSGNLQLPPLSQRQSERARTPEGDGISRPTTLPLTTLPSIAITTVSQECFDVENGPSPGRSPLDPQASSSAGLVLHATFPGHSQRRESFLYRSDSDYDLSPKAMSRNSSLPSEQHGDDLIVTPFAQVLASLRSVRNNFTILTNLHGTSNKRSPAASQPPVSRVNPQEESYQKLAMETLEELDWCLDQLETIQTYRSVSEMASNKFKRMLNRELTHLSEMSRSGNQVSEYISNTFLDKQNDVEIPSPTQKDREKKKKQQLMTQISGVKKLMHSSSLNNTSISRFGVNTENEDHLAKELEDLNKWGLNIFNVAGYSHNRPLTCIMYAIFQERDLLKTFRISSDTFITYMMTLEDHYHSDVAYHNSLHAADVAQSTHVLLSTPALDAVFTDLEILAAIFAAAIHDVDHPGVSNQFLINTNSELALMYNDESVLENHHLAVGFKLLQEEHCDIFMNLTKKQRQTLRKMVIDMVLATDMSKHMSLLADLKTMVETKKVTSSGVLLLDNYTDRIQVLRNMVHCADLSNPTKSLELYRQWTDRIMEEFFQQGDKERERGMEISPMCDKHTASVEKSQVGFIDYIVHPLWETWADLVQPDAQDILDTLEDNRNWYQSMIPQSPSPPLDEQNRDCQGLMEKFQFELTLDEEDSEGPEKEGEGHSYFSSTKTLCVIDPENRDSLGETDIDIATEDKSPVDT
Outline: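 ACTOne HEK293 cells carry a modified cAMP-gated CNG channel and express endogenous PDE4; plated 1000 cells/well, compounds up to 22.9 uM final. Membrane-potential dye fluorescence (ex 535/em 590) was read; parental cells received 10 uM forskolin + 100 uM RO 20-1724.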
Potency is read from the fitted curve at half-maximal effect; tags tell the direction and shape of the fitted curve.

## Oc1c(C(c2ccccc2)N2CCOCC2)ccc2ccccc12 (stereo not given)
[1]
  Potency: inactive
[2]
  Potency: inconclusive: 23.1 µM [cytotoxic, single point]
[3]
  Potency: inconclusive: 24.1 µM [inhibitor, partial curve]

## Nc1cc(S(=O)(=O)Nc2ccccc2Cl)ccc1N1CCCCC1
[2]
  Potency: inactive

## Cc1cccc(C(=O)Nc2ccc(C(=O)/C=C/c3ccncc3)cc2)c1
[1]
  Potency: inconclusive: 23.1 µM [inhibitor, single point]
[2]
  Potency: inconclusive: 22.4 µM [cytotoxic, partial curve, poor fit]

## COc1ccc(/C=C/C(=O)c2ccc([N+](=O)[O-])o2)cc1OC
[4]
  Potency: active: 10 µM
[2]
  Potency: active: 16.8 µM

## O=C(O)CCCN1C(=O)/C(=C\c2ccc(-c3nc4ccccc4s3)o2)SC1=S
[5]
  Potency: inconclusive: 4.11 µM [inhibitor, full curve]

## COC(=O)\C(C(C)=O)=C(/C=C/C=C/C=C/N(C)C)N(C)C
[5]
  Potency: active: 4.11 µM

## COc1ccc(Cc2nnc(NC(=O)Cc3cccs3)s2)cc1
[6]
  Potency: active: 16.8 µM

## C=CCn1c(SCC(=O)c2ccc(O)c(O)c2)nnc1-c1cccnc1
[6]
  Potency: active: 33.6 µM

## Cc1nn(CCc2nc(-c3ccco3)cs2)c2[nH]c(=O)cc(C(F)(F)F)c12
[3]
  Potency: inconclusive: 24.1 µM [inhibitor, partial curve]

## COCCCNC(=O)/C(C#N)=C/c1ccc(OCC(=O)O)c(OC)c1
[7]
  Potency: inconclusive: 30.4 µM [inhibitor, single point]
[8]
  Potency: active: 5.41 µM

## COc1ccc(Sc2ccc(/C=C3\C(=O)NN(c4ccccc4)C3=O)o2)cc1
[7]
  Potency: inactive
[8]
  Potency: active: 21.5 µM

## O=C(O)CCSCc1ccccc1
[9]
  Potency: inactive

## Cc1cc(N2CCN(C)CC2)n2nc(-c3ccc(Cl)cc3)nc2n1
[9]
  Potency: inactive

## O=C(O)CSc1ccc([N+](=O)[O-])cc1[N+](=O)[O-]
[9]
  Potency: inactive

## COC(=O)C1CC1C(NC(=O)[C@@H]1CCCN1)c1ccccc1 (stereo not given in full)
[9]
  Potency: inactive

## C[N+]1(C)CCO[C@](O)(c2ccccc2)C1
[9]
  Potency: inactive

## O[C@@H]1CC[C@H]2Cc3ccccc3N=C21
[9]
  Potency: inactive

## N#Cc1cccc(-c2nccc(NCc3cccs3)n2)c1
[9]
  Potency: inconclusive: 12.6 µM [activator, partial curve]

## CC(=O)O[C@@H]1CC[C@]2(C)[C@H]3CC[C@]4(C)[C@H](C[C@H]5CCCC[C@@]54C(C)=O)[C@@H]3CC(=O)[C@@]2(O)C1
[9]
  Potency: inactive

## COC(=O)[C@@]1(Cc2ccc(OC)cc2)[C@H]2c3cc(C(=O)N(C)C)n(Cc4ccc(OC)c(OC)c4)c3C[C@H]2CN1C(=O)c1ccccc1
[9]
  Potency: inactive

## CCC/C=C(\CCC)C(NS(=O)(=O)c1cccc2cccnc12)c1ccc(C(=O)OC)cc1 (stereo not given)
[9]
  Potency: inconclusive: 5.01 µM [activator, partial curve]

## Cc1nc2cnc(N3CCOCC3)nc2n(Cc2ccc(F)cc2)c1=O
[9]
  Potency: inconclusive: 7.94 µM [activator, partial curve]

## C/C(=C\CNc1ncnc2c1ncn2[C@@H]1O[C@@H](CO)[C@@H](O)[C@H]1O)CO
[9]
  Potency: inactive

## CC[C@H](CN(C)C)C(=O)c1ccco1
[9]
  Potency: inactive

## O=S(=O)(O)c1ccc(N=Nc2ccccc2)cc1
[9]
  Potency: inactive

## COC(=O)[C@@]1(Cc2ccc(OC)cc2)[C@H]2c3cc(C(=O)N4CCCC4)n(Cc4ccc(OC)c(OC)c4)c3C[C@H]2CN1C(=O)c1ccccc1
[9]
  Potency: inconclusive: 6.31 µM [activator, partial curve, poor fit]

## C[C@@H](C(=O)O)[C@@H]1C[C@@]1(C)[C@@H](NC(=O)OCc1ccccc1)c1ccccc1
[9]
  Potency: inactive

## NC(=O)N[C@H](CC(=O)O)C(=O)O
[9]
  Potency: inactive

## COc1ccc2nc3c(cc2c1)Cc1ccccc1-3
[9]
  Potency: inconclusive: 10 µM [rising, partial curve]

## CCOC(OCC)P(=O)(O)CCCNCc1ccc(Cl)c(Cl)c1
[9]
  Potency: inconclusive: 19 µM [inhibitor, single point]

## COc1cccc2oc(-c3ccc(O)cc3)cc(=O)c12
[9]
  activation (PDE inhibition): inconclusive: -42.2%

## CC[C@@]1(O)C(=O)COc2c1cc1n(c2=O)Cc2c-1nc1cccc(C(C)C)c1c2[Si](C)(C)C
[9]
  Potency: inconclusive: 12.6 µM [activator, partial curve]

## CC(=O)[C@H]1[C@H]2[C@H](C(=O)[C@@H]3OC[C@H]2O3)[C@@H]2c3ccccc3C=CN12
[9]
  Potency: inactive

## O=C(NC[C@@H]1CCCCN1)c1cc(OCC(F)(F)F)ccc1OCC(F)(F)F
[9]
  Potency: inactive

## NC(=O)NOC[C@@H]1NC(=O)NC1=O
[9]
  Potency: inactive

## O=c1c(-c2cccc(F)c2)nc2cncnc2n1-c1ccccc1
[9]
  Potency: inconclusive: 10 µM [activator, partial curve]

## Nc1nc2nc3c(nc2c(=O)[nH]1)CN(c1ccc(C(=O)O)cc1)C3=O
[9]
  Potency: inactive

## O=C(O)c1cc(-c2ccncc2)nc2ccccc12
[9]
  Potency: inactive

## COc1ccc(-c2coc3cc(O[C@@H]4O[C@@H](CO)[C@@H](O)[C@@H](O)[C@H]4O)cc(O)c3c2=O)cc1
[9]
  Potency: inconclusive: 19 µM [inhibitor, single point]
